PubChem BioAssay (Tox21)
“And” between values parts separate entries of the source, which are not always exact repeats. Identical values can stand only once. Inconclusive results, whose numbers are uncertain, are shown with a selection of clear calls. For some of these results: A potency beside an inconclusive call is a rough fit, not a confirmed value. The source holds several records for some structures; these can differ, active in one and inactive in another. The source made the active and inactive calls. Unless noted, the call rests on the fitted dose curve.

Tests used:
[1] = target: Peroxisome proliferator-activated receptor gamma (Homo sapiens) (UniProt P37231); assay: qHTS assay to identify small molecule antagonists of the peroxisome proliferator-activated receptor gamma (PPARg) signaling pathway (AID 743191); conditions: HEK293H PPARg-UAS-bla, beta-lactamase ratio, antagonist, 17 h; ratio activity, negative = inhibition: at 62.6 µM (top of the series) unless noted; further: nearly all actives have a fitted effect of over 30% in size; further: potency means the concentration at half of the fitted maximal effect; on ratio activity, negative = inhibition: on the % scale 0 is the no-effect control and ±100 the full control effect
Chain of UniProt P37231 (P37231 whole entry, looked up): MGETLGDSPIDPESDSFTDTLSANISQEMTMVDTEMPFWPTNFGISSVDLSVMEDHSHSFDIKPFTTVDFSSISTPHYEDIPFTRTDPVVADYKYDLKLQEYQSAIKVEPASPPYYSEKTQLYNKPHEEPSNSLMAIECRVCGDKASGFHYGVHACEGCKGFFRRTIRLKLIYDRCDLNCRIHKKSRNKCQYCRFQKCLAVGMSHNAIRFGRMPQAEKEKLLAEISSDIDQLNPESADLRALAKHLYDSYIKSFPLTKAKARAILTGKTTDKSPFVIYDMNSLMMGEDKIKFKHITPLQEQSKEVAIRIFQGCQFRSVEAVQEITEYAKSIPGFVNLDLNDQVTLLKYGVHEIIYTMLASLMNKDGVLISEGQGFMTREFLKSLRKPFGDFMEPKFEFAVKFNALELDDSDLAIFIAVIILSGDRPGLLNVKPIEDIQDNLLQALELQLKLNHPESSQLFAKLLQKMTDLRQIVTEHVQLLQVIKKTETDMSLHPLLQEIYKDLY
Summary of the method: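 GeneBLAzer PPARg UAS-bla HEK293H cells carrying a UAS-driven beta-lactamase reporter were plated at 3000 cells/well, preincubated 5 h at 37C, then given compound for 17 h at 37C; LiveBLAzer B/G FRET substrate was read after 1 h at room temperature.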

[2] = qHTS assay to identify small molecule antagonists of the peroxisome proliferator-activated receptor gamma (PPARg) signaling pathway - cell viability counter screen (AID 743194; active means well fitted curve in the direction sought with a large enough effect in the repeat runs; inconclusive means weak or mixed curves; inactive means no such curve, though single readings can be large; an effect the other way counts as inactive or inconclusive; further: potency means the concentration at half of the fitted maximal effect; nearly all actives have a fitted effect of over 55% in size); conditions: PPARg-bla HEK293H viability, CellTiter-Glo luminescence, 17 h; Potency: co-treated with 50 nM rosiglitazone unless noted; activity change, negative = cytotoxicity: at 62.6 µM (top of the series), co-treated with 50 nM rosiglitazone unless noted
Summary of the method: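 PPARg-UAS-bla HEK293H cells were plated, rested 5 h at 37 C, then treated with compounds plus rosiglitazone (50 nM final) for 17 h at 37 C; viability was then read by CellTiter-Glo luminescence after 30 min at room temperature.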

[3] = qHTS assay for small molecule agonists of the antioxidant response element (ARE) signaling pathway (AID 743202; active means well fitted activation curve with a large enough effect in the signal ratio in the repeat runs, not every such curve was filed as active; inconclusive means weak or mixed curves, or effect the other way; inactive means no such curve, though single readings can be large or run the other way; the % refers to the signal ratio; further: potency means the concentration at half of the fitted maximal effect); conditions: HepG2 ARE-bla reporter, beta-lactamase FRET, 16 h; activation: at 73.3 µM (top of the series) unless noted
Summary of the method: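 Read-out: LiveBLAzer B/G FRET substrate fluorescence after 2 h at room temperature, following 16 h compound treatment at 37 C of HepG2 cells carrying an ARE-driven beta-lactamase reporter.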

[4] = qHTS assay for small molecule agonists of the antioxidant response element (ARE) signaling pathway - cell viability counter screen (AID 743203); further: nearly all actives have a fitted effect of over 55% in size; further: potency means the concentration at half of the fitted maximal effect
Summary of the method: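 ARE-bla HepG2 cells were plated, rested 5 h at 37C/5% CO2, then exposed to compounds in DMSO for 16 h. Viability was read as CellTiter-Glo luminescence after 30 min at room temperature, in the same wells as the ARE screen.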

[5] = qHTS assay for small molecule activators of the heat shock response signaling pathway (AID 743210; active means well fitted activation curve with a large enough effect in the signal ratio in the repeat runs, with a control signal flat, not every such curve was filed as active; inconclusive means weak or mixed curves; the % refers to the signal ratio; further: potency means the concentration at half of the fitted maximal effect); conditions: HeLa HSE-bla reporter, beta-lactamase ratio, 5 h; activation: at 62.6 µM (top of the series)
Summary of the method: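 HSE-bla HeLa cells (beta-lactamase reporter under heat shock response elements) were exposed to compounds for 5 h at 37 C, then loaded with LiveBLAzer B/G FRET substrate for 2.5 h at room temperature before fluorescence reading.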

[6] = qHTS assay to identify small molecule agonists of the peroxisome proliferator-activated receptor delta (PPARd) signaling pathway - cell viability counter screen (AID 743211; active means well fitted curve in the direction sought with a large enough effect in the repeat runs; inconclusive means weak or mixed curves; inactive means no such curve, though single readings can be large; an effect the other way counts as inactive or inconclusive; further: nearly all actives have a fitted effect of over 55% in size; further: potency means the concentration at half of the fitted maximal effect; on activity change, negative = cytotoxicity: on the % scale 0 is the no-effect control and ±100 the full control effect); conditions: PPARd-bla HEK293H viability, CellTiter-Glo luminescence, 17 h; activity change, negative = cytotoxicity: at 62.6 µM (top of the series) unless noted
Summary of the method: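 Read-out: CellTiter-Glo luminescence, 30 min RT, measured in the same wells as the beta-lactamase reporter. Cells: GeneBLAzer PPAR delta UAS-bla HEK293H, 3000 cells/well, compound exposure 17 h at 37C.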

[7] = target: Peroxisome proliferator-activated receptor delta (Homo sapiens) (UniProt Q03181); assay: qHTS assay to identify small molecule agonists of the peroxisome proliferator-activated receptor delta (PPARd) signaling pathway (AID 743212); conditions: HEK293H PPARd-UAS-bla, beta-lactamase FRET ratio, 17 h; activation: at 62.6 µM (top of the series) unless noted; further: potency means the concentration at half of the fitted maximal effect
Chain of UniProt Q03181 (Q03181 whole entry, looked up): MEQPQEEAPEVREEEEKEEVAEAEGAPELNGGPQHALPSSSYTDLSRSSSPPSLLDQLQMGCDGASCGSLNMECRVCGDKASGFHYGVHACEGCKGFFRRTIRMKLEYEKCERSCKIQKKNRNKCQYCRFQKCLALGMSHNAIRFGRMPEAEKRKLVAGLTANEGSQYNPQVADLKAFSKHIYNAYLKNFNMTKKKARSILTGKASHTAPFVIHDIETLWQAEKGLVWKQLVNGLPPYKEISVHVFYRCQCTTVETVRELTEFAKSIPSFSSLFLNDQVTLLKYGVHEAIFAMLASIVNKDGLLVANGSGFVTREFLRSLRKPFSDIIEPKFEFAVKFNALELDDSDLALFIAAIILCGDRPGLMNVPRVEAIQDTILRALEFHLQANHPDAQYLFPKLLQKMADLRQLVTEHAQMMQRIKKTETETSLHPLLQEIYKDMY
Summary of the method: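 GeneBLAzer PPARd UAS-bla HEK293H cells (beta-lactamase reporter under UAS control), plated and rested 5 h at 37 C, then exposed to compounds in DMSO at 37 C; LiveBLAzer B/G FRET substrate added, 2 h room temperature, fluorescence read.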

[8] = target: Bile acid receptor (Homo sapiens) (UniProt Q96RI1); assay: qHTS assay to identify small molecule antagonists of the farnesoid-X-receptor (FXR) signaling pathway (AID 743217; active means well fitted inhibition curve with a large enough effect in the signal ratio in the repeat runs, not every such curve was filed as active; inconclusive means weak or mixed curves, or effect the other way; inactive means no such curve, though single readings can be large or run the other way; the % refers to the signal ratio; further: potency means the concentration at half of the fitted maximal effect); conditions: HEK293T FXR-UAS-bla, beta-lactamase ratio, CDCA-stimulated, 16 h; activity change, negative = inhibition: at 62.6 µM (top of the series) unless noted
Chain of UniProt Q96RI1 (Q96RI1 whole entry, looked up): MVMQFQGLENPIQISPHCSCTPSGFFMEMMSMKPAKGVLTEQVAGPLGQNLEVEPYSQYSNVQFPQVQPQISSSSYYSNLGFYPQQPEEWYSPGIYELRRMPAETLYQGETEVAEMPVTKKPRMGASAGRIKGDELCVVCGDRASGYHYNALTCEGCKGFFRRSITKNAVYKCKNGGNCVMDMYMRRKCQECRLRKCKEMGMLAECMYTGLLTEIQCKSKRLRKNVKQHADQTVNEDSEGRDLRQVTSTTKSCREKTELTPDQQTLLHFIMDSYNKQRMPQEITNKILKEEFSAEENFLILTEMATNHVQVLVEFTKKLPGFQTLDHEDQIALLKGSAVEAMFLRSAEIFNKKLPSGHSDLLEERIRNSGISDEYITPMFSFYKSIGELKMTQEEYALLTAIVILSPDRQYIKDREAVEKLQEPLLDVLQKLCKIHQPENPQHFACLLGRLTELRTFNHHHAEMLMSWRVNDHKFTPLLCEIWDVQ
Summary of the method: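 FXR-UAS-bla HEK 293T cells (beta-lactamase reporter) given compound plus chenodeoxycholic acid (50 uM final), 16 h at 37C. LiveBLAzer B/G FRET substrate added for 2 h at room temperature; fluorescence read.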

[9] = qHTS assay to identify small molecule agonists of the farnesoid-X-receptor (FXR) signaling pathway - cell viability counter screen (AID 743218; active means well fitted curve in the direction sought with a large enough effect in the repeat runs; inconclusive means weak or mixed curves; inactive means no such curve, though single readings can be large; an effect the other way counts as inactive or inconclusive; further: nearly all actives have a fitted effect of over 45% in size; further: potency means the concentration at half of the fitted maximal effect; on viability change, negative = cytotoxic: on the % scale 0 is the no-effect control and ±100 the full control effect); conditions: FXR-bla HEK293T viability, CellTiter-Glo luminescence, 16 h; viability change, negative = cytotoxic: at 62.6 µM (top of the series) unless noted
Summary of the method: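 FXR-UAS-bla HEK 293T cells exposed to compounds for 16 h at 37C. Cytotoxicity read in the same wells by CellTiter-Glo luminescence after 30 min at room temperature, following the beta-lactamase FRET read.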

[10] = qHTS assay to identify small molecule antagonists of the farnesoid-X-receptor (FXR) signaling pathway - cell viability counter screen (AID 743221; active means well fitted cell-killing curve with a large enough effect in the repeat runs, not every such curve was filed as active; inconclusive means weak or mixed curves, or effect the other way; inactive means no such curve, though single readings can be large or run the other way; further: potency means the concentration at half of the fitted maximal effect; nearly all actives have a fitted effect of over 50% in size); conditions: FXR-bla HEK293T viability, CellTiter-Glo luminescence, 16 h; activity change, negative = cytotoxicity: at 62.6 µM (top of the series) unless noted
Summary of the method: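 HEK 293T FXR-bla cells, 5 h pre-incubation; compound + CDCA 50 uM final, 16 h, 37 C; beta-lactamase FRET read first, then CellTiter-Glo luminescence, 30 min RT.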

[11] = target: Vitamin D3 receptor (Homo sapiens) (UniProt P11473); assay: qHTS assay to identify small molecule antagonists of the vitamin D receptor (VDR) signaling pathway (AID 743223; active means well fitted inhibition curve with a large enough effect in the signal ratio in the repeat runs, not every such curve was filed as active; inconclusive means weak or mixed curves, or effect the other way; inactive means no such curve, though single readings can be large or run the other way; the % refers to the signal ratio; further: potency means the concentration at half of the fitted maximal effect); conditions: VDR-UAS-bla HEK293T, beta-lactamase FRET ratio, 16 h; activity change, negative = inhibition: at 61 µM (top of the series) unless noted
Chain of UniProt P11473 (P11473 whole entry, looked up): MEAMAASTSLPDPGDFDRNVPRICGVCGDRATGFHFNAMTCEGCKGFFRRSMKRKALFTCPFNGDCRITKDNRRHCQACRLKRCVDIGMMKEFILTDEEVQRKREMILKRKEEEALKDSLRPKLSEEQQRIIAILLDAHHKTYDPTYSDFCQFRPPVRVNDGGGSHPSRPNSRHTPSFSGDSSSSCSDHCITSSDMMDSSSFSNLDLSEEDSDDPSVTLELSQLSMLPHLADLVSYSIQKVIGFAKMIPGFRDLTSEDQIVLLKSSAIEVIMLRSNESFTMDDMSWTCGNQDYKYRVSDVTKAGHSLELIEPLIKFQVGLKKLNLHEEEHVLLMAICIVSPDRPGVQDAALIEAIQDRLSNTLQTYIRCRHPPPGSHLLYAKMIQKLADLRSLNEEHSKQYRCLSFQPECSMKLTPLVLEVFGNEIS
Summary of the method: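 Beta-lactamase reporter read-out: FRET substrate fluorescence after 2 h at room temperature, following 16 h exposure of VDR-bla cells to test compound plus 3 nM (final) 1alpha,25-dihydroxyvitamin D3 agonist at 37C.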

[12] = qHTS assay to identify small molecule agonists of the vitamin D receptor (VDR) signaling pathway - cell viability counter screen (AID 743224; active means well fitted curve in the direction sought with a large enough effect in the repeat runs; inconclusive means weak or mixed curves; inactive means no such curve, though single readings can be large; an effect the other way counts as inactive or inconclusive; further: potency means the concentration at half of the fitted maximal effect; nearly all actives have a fitted effect of over 50% in size)
Summary of the method: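 VDR-bla cells, 4 h after plating, exposed to compounds for 16 h at 37C; viability then read in the same wells as CellTiter-Glo luminescence after 30 min at room temperature, following the bla FRET read.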

[13] = qHTS assay to identify small molecule antagonists of the vitamin D receptor (VDR) signaling pathway - cell viability counter screen (AID 743225; active means well fitted curve in the direction sought with a large enough effect in the repeat runs; inconclusive means weak or mixed curves; inactive means no such curve, though single readings can be large; an effect the other way counts as inactive or inconclusive; further: potency means the concentration at half of the fitted maximal effect; nearly all actives have a fitted effect of over 50% in size); conditions: VDR-bla HEK293T viability, CellTiter-Glo luminescence, 16 h; viability change, negative = cytotoxic: at 61 µM (top of the series) unless noted
Summary of the method: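 Viability counter screen run in the same wells as the beta-lactamase reporter assay: HEK 293T VDR-UAS-bla cells, 16 h compound exposure at 37C with 3 nM (final) 1-alpha,25-dihydroxyvitamin D3. CellTiter-Glo luminescence, 30 min, room temperature.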

[14] = qHTS assay to identify small molecule agonists of the endoplasmic reticulum stress response signaling pathway (AID 1159516; active means well fitted activation curve with a large enough effect in the signal ratio in the repeat runs, not every such curve was filed as active; inconclusive means weak or mixed curves, or effect the other way; the % refers to the signal ratio; further: potency means the concentration at half of the fitted maximal effect); conditions: ESRE-bla HeLa, ER stress beta-lactamase reporter, 5 h; activation: at 61 µM (top of the series) unless noted
Summary of the method: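 CellSensor ESRE-bla HeLa cells, 1,500 per well, plated overnight, then exposed to compounds for 5 hr at 37 C. Beta-lactamase reporter read with LiveBLAzer B/G FRET substrate after 2 hr at room temperature, 405 nm excitation, 460 and 530 nm emission.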

[15] = target: Vitamin D3 receptor (Homo sapiens) (UniProt P11473); assay: qHTS assay to identify small molecule agonists of the vitamin D receptor (VDR) signaling pathway (AID 743222); conditions: HEK293T VDR-UAS-bla, beta-lactamase FRET ratio, 16 h; activation: at 63.5 µM (top of the series) unless noted; further: potency means the concentration at half of the fitted maximal effect
Summary of the method: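 VDR-bla cells plated 4 h at 37 C, then exposed to compounds for 16 h at 37 C. Beta-lactamase reporter activity measured by fluorescence after 2 h room-temperature loading with LiveBLAzer B/G FRET substrate.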

[16] = qHTS assay to identify small molecule antagonists of the peroxisome proliferator-activated receptor delta (PPARd) signaling pathway - cell viability counter screen (AID 743213; active means well fitted curve in the direction sought with a large enough effect in the repeat runs; inconclusive means weak or mixed curves; inactive means no such curve, though single readings can be large; an effect the other way counts as inactive or inconclusive; further: on the % scale 0 is the no-effect control and ±100 the full control effect; nearly all actives have a fitted effect of over 50% in size); conditions: PPARd-bla HEK293H viability, CellTiter-Glo luminescence, 17 h; viability change, negative = cytotoxic: at 62 µM (top of the series) unless noted
Summary of the method: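 Luminescence from CellTiter-Glo, added after the bla read and incubated 30 min at room temperature, gives viability of HEK293H PPARd-bla cells exposed to compounds for 17 h at 37 C with 300 nM L165041.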

[17] = target: Peroxisome proliferator-activated receptor delta (Homo sapiens) (UniProt Q03181); assay: qHTS assay to identify small molecule antagonists of the peroxisome proliferator-activated receptor delta (PPARd) signaling pathway (AID 743215; active means well fitted inhibition curve with a large enough effect in the signal ratio in the repeat runs, not every such curve was filed as active; inconclusive means weak or mixed curves, or effect the other way; inactive means no such curve, though single readings can be large or run the other way; the % refers to the signal ratio;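 further: cells stimulated with agonist L165041 at 300 nM final during compound exposure; on the % scale 0 is the no-effect control and ±100 the full control effect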); conditions: HEK293H PPARd-UAS-bla, beta-lactamase FRET ratio, antagonist, 17 h; ratio activity, negative = inhibition: at 62 µM (top of the series) unless noted
Summary of the method: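 PPARd-bla HEK293H cells (UAS-bla reporter) preincubated 5 h, then given compound plus 300 nM final L165041 agonist for 17 h at 37 C. Beta-lactamase activity read by LiveBLAzer B/G FRET substrate fluorescence after 2 h at room temperature.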

[18] = qHTS assay for small molecule activators of the heat shock response signaling pathway - cell viability counter screen (AID 743209; active means well fitted curve in the direction sought with a large enough effect in the repeat runs; inconclusive means weak or mixed curves; inactive means no such curve, though single readings can be large; an effect the other way counts as inactive or inconclusive); conditions: HSE-bla HeLa viability, CellTiter-Glo luminescence, 5 h; activity change, negative = cytotoxicity: at 62.6 µM (top of the series) unless noted
Summary of the method: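 HSE-bla HeLa cells plated overnight, then exposed to Tox21 compounds (23 nL in DMSO) for 5 h at 37 C. After the bla reporter read, CellTiter-Glo was added in the same wells and luminescence read after 30 min at room temperature.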
Tags describe the fitted curve by direction and shape or compound fluorescence and quenching.

**Q.** Which results are given for O=C(CCl)Nc1ccccc1?
**A.** Potency [1]: inconclusive: 21.9 µM; Potency [2]: active: 15.5 µM; Potency [3]: active: 4.33 µM; Potency [4]: inconclusive: 68.6 µM [cytotoxic]; Potency [5]: inconclusive: 49 µM; Potency [6]: active: 49 µM; Potency [7]: inconclusive: 49 µM [rising, partial curve]; Potency [8]: inconclusive: 21.9 µM [rising, full curve]; Potency [9]: inactive; Potency [10]: inconclusive: 54.9 µM [falling, single point]; Potency [11]: inconclusive: 38.9 µM [rising, partial curve]; Potency [12]: active: 24.5 µM; Potency [13]: active: 49 µM; Potency [14]: inconclusive: 54.9 µM [rising, partial curve, poor fit]

**Q.** Which results are given for Nc1ccc(-c2ccc(N)c(Cl)c2)cc1Cl?
**A.** Potency [1]: active: 49 µM; ratio activity, negative = inhibition [1]: inconclusive: 10.6% [at 81.1 µM]; Potency [3]: active: 1.38 µM and active: 2.02 µM and active: 1.72 µM; Potency [6]: inconclusive: 55.3 µM and inactive and inconclusive: 21.9 µM [cytotoxic, full curve, poor fit]; Potency [15]: inactive; Potency [11]: inactive; Potency [14]: inconclusive: 49.2 µM [cytotoxic, single point] and inconclusive: 64.5 µM [cytotoxic, single point] and inconclusive: 61.7 µM [cytotoxic, single point]

**Q.** Which results are given for CC#C[C@]1(O)CC[C@H]2[C@@H]3C[C@H](C)C4=CC(=O)CC[C@]4(C)[C@H]3CC[C@@]21C?
**A.** ratio activity, negative = inhibition [1]: inconclusive: 13.9%; Potency [3]: active: 23.7 µM; Potency [5]: inconclusive: 37.6 µM [activator, partial curve, poor fit]; activation [7]: inconclusive: -14.5%; Potency [16]: inactive; ratio activity, negative = inhibition [17]: inconclusive: 0.307%; Potency [8]: inconclusive: 23.7 µM [rising, partial curve, poor fit]; Potency [15]: inconclusive: 8.41 µM [rising, partial curve, poor fit]; Potency [14]: inactive

**Q.** For COC(=O)C(Cl)C(=O)OC, which Potency [1] is on record?
**A.** The Potency was inconclusive: 11.9 µM [activator, partial curve, poor fit].

**Q.** What about the Potency [3] of the same compound?
**A.** The Potency was inconclusive: 9.44 µM [rising, full curve].

**Q.** And the Potency [4]?
**A.** Its Potency is “inactive”.

**Q.** And the Potency [18]?
**A.** Its Potency is inconclusive: 0.0944 µM [cytotoxic, full curve, poor fit].

**Q.** And the Potency [8]?
**A.** Its Potency is inconclusive: 11.9 µM [activator, full curve, poor fit].

**Q.** And the Potency [9]?
**A.** Its Potency is inconclusive: 26.6 µM [rising, partial curve, poor fit].

**Q.** And the Potency [14]?
**A.** The Potency was inconclusive: 26.8 µM [activator, single point].

**Q.** Which Potency [1] does the source give for Cc1ccccc1C(=O)Nc1cccc(OC(C)C)c1 here?
**A.** The Potency was active: 49 µM.

**Q.** What about the Potency [3] of the same compound?
**A.** Its Potency is inconclusive: 24.3 µM [rising, full curve, poor fit].

**Q.** What about the Potency [4] of the same compound?
**A.** The Potency was “inactive”.

**Q.** What about the Potency [9] of the same compound?
**A.** Its Potency is inconclusive: 24.5 µM [cytotoxic, partial curve, poor fit].

**Q.** And the Potency [13]?
**A.** Its Potency is inconclusive: 0.219 µM [cytotoxic, single point].

**Q.** And the Potency [14]?
**A.** The Potency was “inactive”.
